Laboratory results: the supplement of paper PMC10369915
This is one part of the list. Cut-off read from the data, not from the text of the source: active = 3.2 or more and inactive = the rest. Only a few entries rise above the background.

Experiments:
Test in all cases: enrichment score (SH2-bound / input frequency) (ratio); bacterial display of known human phosphotyrosine sites (pTyr-Var adds point mutants) read by sequencing; higher = stronger binding; tyrosines were phosphorylated by kinases first
Conditions in all cases: peptide library: pTyr-Var
SHP2 C-SH2 domain E139D = biological target: SHP2 C-SH2 domain E139D
[1] = biological target: SHP2 C-SH2 domain wild-type
SHP2 N-SH2 domain L43F = biological target: SHP2 N-SH2 domain L43F
SHP2 N-SH2 domain T42A = biological target: SHP2 N-SH2 domain T42A
SHP2 N-SH2 domain T52S = biological target: SHP2 N-SH2 domain T52S
[2] = biological target: SHP2 N-SH2 domain wild-type

Measured: enrichment score
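Note: displayed peptides selected on beads carrying the immobilized SH2 domain, with library peptides lacking any tyrosine serving as negative controls.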

B1: MAP9_Y603_N601D (peptide)
chain: QAIDEYEKWLE
inactive: SHP2 C-SH2 domain E139D 0.97 | [1] 0.565 | SHP2 N-SH2 domain L43F 0.642 | SHP2 N-SH2 domain T42A 0.74 | SHP2 N-SH2 domain T52S 0.746 | [2] 0.952

B2: LPCAT3_Y348_W344C (peptide)
chain: ACVARYIFKRL
inactive: SHP2 C-SH2 domain E139D 0.828 | [1] 0.791 | SHP2 N-SH2 domain L43F 0.902 | SHP2 N-SH2 domain T42A 0.884 | SHP2 N-SH2 domain T52S 0.901 | [2] 0.676

B3: MAPK13_Y182_V184M (peptide)
chain: AEMTGYVMTRW
inactive: SHP2 C-SH2 domain E139D 0.551 | [1] 0.537 | SHP2 N-SH2 domain L43F 0.381 | SHP2 N-SH2 domain T42A 0.421 | SHP2 N-SH2 domain T52S 0.384 | [2] 0.681

B4: LMNA_Y211_I210V (peptide)
chain: FQKNVYSEELR
inactive: SHP2 C-SH2 domain E139D 0.597 | [1] 0.562 | SHP2 N-SH2 domain L43F 0.719 | SHP2 N-SH2 domain T42A 0.669 | SHP2 N-SH2 domain T52S 0.561 | [2] 0.747

B5: MAK16_Y282_Q277R (peptide)
chain: RRKRAYVEIEY
inactive: SHP2 C-SH2 domain E139D 0.235 | [1] 0.202 | SHP2 N-SH2 domain L43F 0.0566 | SHP2 N-SH2 domain T42A 0.229 | SHP2 N-SH2 domain T52S 0.265 | [2] 0.165

B6: MAOA_Y268_YF (peptide)
chain: HFECKYVINAI
inactive: SHP2 C-SH2 domain E139D 1.08 | [1] 1.58 | SHP2 N-SH2 domain L43F 1.34 | SHP2 N-SH2 domain T42A 0.864 | SHP2 N-SH2 domain T52S 0.836 | [2] 1.84

B7: MACC1_Y803 (peptide)
chain: HYGNNYRDVLQ
inactive: SHP2 C-SH2 domain E139D 0.668 | [1] 0.83 | SHP2 N-SH2 domain L43F 0.542 | SHP2 N-SH2 domain T42A 0.618 | SHP2 N-SH2 domain T52S 0.872 | [2] 0.551

B8: LTK_Y677_R673Q (peptide)
chain: YQASYYRRGDR
inactive: SHP2 C-SH2 domain E139D 0.177 | [1] 0.222 | SHP2 N-SH2 domain L43F 0.209 | SHP2 N-SH2 domain T42A 0.222 | SHP2 N-SH2 domain T52S 0.234 | [2] 0.283

B9: MAGEA1_Y276_K278I (peptide)
chain: LAETSYVIVLE
inactive: SHP2 C-SH2 domain E139D 0.924 | [1] 1.94 | SHP2 N-SH2 domain L43F 1.1 | SHP2 N-SH2 domain T42A 1.7 | SHP2 N-SH2 domain T52S 0.794 | [2] 1.56

B10: LUZP1_Y1036 (peptide)
chain: CTLSVYRQLHN
inactive: SHP2 C-SH2 domain E139D 0.795 | [1] 0.895 | SHP2 N-SH2 domain L43F 0.8 | SHP2 N-SH2 domain T42A 0.746 | SHP2 N-SH2 domain T52S 0.752 | [2] 1.07

B11: LRRK2_Y707_M712V (peptide)
chain: VAMDDYLKNVV
inactive: SHP2 C-SH2 domain E139D 0.888 | [1] 0.874 | SHP2 N-SH2 domain L43F 0.687 | SHP2 N-SH2 domain T42A 0.714 | SHP2 N-SH2 domain T52S 0.951 | [2] 1.12

B12: MAK16_Y282_Q277R_YF (peptide)
chain: RRKRAYVEIEF
inactive: SHP2 C-SH2 domain E139D 0.369 | [1] 0.199 | SHP2 N-SH2 domain L43F 0.328 | SHP2 N-SH2 domain T42A 0.248 | SHP2 N-SH2 domain T52S 0.261 | [2] 0.291

B13: LRRK2_Y1402_R1398H (peptide)
chain: GHEEFYSTHPH
inactive: SHP2 C-SH2 domain E139D 0.806 | [1] 0.693 | SHP2 N-SH2 domain L43F 0.745 | SHP2 N-SH2 domain T42A 0.654 | SHP2 N-SH2 domain T52S 0.99 | [2] 0.81

B14: LMNA_Y481_R482L (peptide)
chain: DPLLTYLFPPK
inactive: SHP2 C-SH2 domain E139D 1.51 | [1] 1.43 | SHP2 N-SH2 domain L43F 1.31 | SHP2 N-SH2 domain T42A 1.35 | SHP2 N-SH2 domain T52S 1.1 | [2] 1.24

B15: LRP2_Y2010 (peptide)
chain: RGLQVYHRRNA
inactive: SHP2 C-SH2 domain E139D 0.352 | [1] 0.295 | SHP2 N-SH2 domain L43F 0.239 | SHP2 N-SH2 domain T42A 0.272 | SHP2 N-SH2 domain T52S 0.158 | [2] 0.245

B16: LMNA_Y646 (peptide)
chain: LVTRSYLLGNS
inactive: SHP2 C-SH2 domain E139D 0.696 | [1] 0.765 | SHP2 N-SH2 domain L43F 0.714 | SHP2 N-SH2 domain T42A 0.835 | SHP2 N-SH2 domain T52S 0.838 | [2] 0.695

B17: MAP2K3_Y214_L215V (peptide)
chain: FGISGYVVDSV
inactive: SHP2 C-SH2 domain E139D 1.24 | [1] 0.949 | SHP2 N-SH2 domain L43F 1.19 | SHP2 N-SH2 domain T42A 1.29 | SHP2 N-SH2 domain T52S 1.16 | [2] 1.24

B18: MAN1B1_Y60 (peptide)
chain: SFGENYDNSKS
inactive: SHP2 C-SH2 domain E139D 0.618 | [1] 0.377 | SHP2 N-SH2 domain L43F 0.587 | SHP2 N-SH2 domain T42A 0.375 | SHP2 N-SH2 domain T52S 0.499 | [2] 0.522

B19: LY75_Y888_D884A_YF (peptide)
chain: DAHFTYSRFPW
inactive: SHP2 C-SH2 domain E139D 0.997 | [1] 0.734 | SHP2 N-SH2 domain L43F 0.866 | SHP2 N-SH2 domain T42A 0.85 | SHP2 N-SH2 domain T52S 0.812 | [2] 1.08

B20: LMNA_Y481 (peptide)
chain: DPLLTYRFPPK
inactive: SHP2 C-SH2 domain E139D 1.14 | [1] 0.857 | SHP2 N-SH2 domain L43F 1.03 | SHP2 N-SH2 domain T42A 0.797 | SHP2 N-SH2 domain T52S 0.965 | [2] 0.693

B21: LLGL2_Y40_R45H (peptide)
chain: PSALGYSPSLH
inactive: SHP2 C-SH2 domain E139D 0.886 | [1] 0.806 | SHP2 N-SH2 domain L43F 0.884 | SHP2 N-SH2 domain T42A 0.517 | SHP2 N-SH2 domain T52S 0.956 | [2] 1.02

B22: MAP2_Y996 (peptide)
chain: GLGVTYEQALA
inactive: SHP2 C-SH2 domain E139D 0.711 | [1] 0.459 | SHP2 N-SH2 domain L43F 0.681 | SHP2 N-SH2 domain T42A 1.31 | SHP2 N-SH2 domain T52S 0.638 | [2] 0.526

B23: LRRK2_Y1718_R1723P (peptide)
chain: LEISPYMLSGP
inactive: SHP2 C-SH2 domain E139D 0.948 | [1] 0.747 | SHP2 N-SH2 domain L43F 1.87 | SHP2 N-SH2 domain T42A 0.817 | SHP2 N-SH2 domain T52S 1.81 | [2] 1.3

B24: LMNA_Y481_Y481H (peptide)
chain: DPLLTHRFPPK
inactive: SHP2 C-SH2 domain E139D 0.698 | [1] 0.798 | SHP2 N-SH2 domain L43F 0.694 | SHP2 N-SH2 domain T42A 0.63 | SHP2 N-SH2 domain T52S 0.598 | [2] 0.665

B25: MAP1A_Y2217_H2214Y_YF (peptide)
chain: TRFDEYLEVTK
inactive: SHP2 C-SH2 domain E139D 0.831 | [1] 0.65 | SHP2 N-SH2 domain L43F 0.65 | SHP2 N-SH2 domain T42A 0.709 | SHP2 N-SH2 domain T52S 0.996 | [2] 0.674

B26: LZTR1_Y119_H121D (peptide)
chain: PPAPRYHDSAV
inactive: SHP2 C-SH2 domain E139D 0.437 | [1] 0.44 | SHP2 N-SH2 domain L43F 0.673 | SHP2 N-SH2 domain T42A 0.512 | SHP2 N-SH2 domain T52S 0.486 | [2] 0.652

B27: LRP5_Y1531 (peptide)
chain: RPYRPYIIRGM
inactive: SHP2 C-SH2 domain E139D 0.373 | [1] 0.339 | SHP2 N-SH2 domain L43F 0.224 | SHP2 N-SH2 domain T42A 0.215 | SHP2 N-SH2 domain T52S 0.304 | [2] 0.186

B28: LMNA_Y45_A43T (peptide)
chain: DRLTVYIDRVR
inactive: SHP2 C-SH2 domain E139D 0.582 | [1] 0.685 | SHP2 N-SH2 domain L43F 0.532 | SHP2 N-SH2 domain T42A 0.571 | SHP2 N-SH2 domain T52S 0.625 | [2] 0.771

B29: LUZP1_Y1036_S1034N (peptide)
chain: CTLNVYRQLHN
inactive: SHP2 C-SH2 domain E139D 0.874 | [1] 1.06 | SHP2 N-SH2 domain L43F 0.749 | SHP2 N-SH2 domain T42A 0.678 | SHP2 N-SH2 domain T52S 0.659 | [2] 1.08

B30: LRRK2_Y2023_YF (peptide)
chain: FGIAQYCCRMG
inactive: SHP2 C-SH2 domain E139D 1.66 | [1] 1.41 | SHP2 N-SH2 domain L43F 1.53 | SHP2 N-SH2 domain T42A 1.38 | SHP2 N-SH2 domain T52S 1.64 | [2] 1.68

B31: LRP5_Y1528_R1529S (peptide)
chain: ATARPYSPYII
inactive: SHP2 C-SH2 domain E139D 0.943 | [1] 0.825 | SHP2 N-SH2 domain L43F 0.651 | SHP2 N-SH2 domain T42A 0.597 | SHP2 N-SH2 domain T52S 1.03 | [2] 0.735

B32: LMNA_Y481_R482Q (peptide)
chain: DPLLTYQFPPK
inactive: SHP2 C-SH2 domain E139D 0.742 | [1] 0.592 | SHP2 N-SH2 domain L43F 0.997 | SHP2 N-SH2 domain T42A 0.636 | SHP2 N-SH2 domain T52S 0.777 | [2] 0.814

B33: LTK_Y672_R673Q_YF (peptide)
chain: MARDIYQASFF
inactive: SHP2 C-SH2 domain E139D 0.954 | [1] 0.846 | SHP2 N-SH2 domain L43F 0.997 | SHP2 N-SH2 domain T42A 0.931 | SHP2 N-SH2 domain T52S 0.988 | [2] 0.998

B34: LTK_Y676 (peptide)
chain: IYRASYYRRGD
inactive: SHP2 C-SH2 domain E139D 0.236 | [1] 0.321 | SHP2 N-SH2 domain L43F 0.306 | SHP2 N-SH2 domain T42A 0.199 | SHP2 N-SH2 domain T52S 0.282 | [2] 0.244

B35: LZTR1_Y119_Y119C (peptide)
chain: PPAPRCHHSAV
inactive: SHP2 C-SH2 domain E139D 2.46 | [1] 2.48 | SHP2 N-SH2 domain L43F 2.24 | SHP2 N-SH2 domain T42A 2.32 | SHP2 N-SH2 domain T52S 2.4 | [2] 2.84

B36: MAML2_Y513_M514V_YF (peptide)
chain: KVMANYVFKAG
inactive: SHP2 C-SH2 domain E139D 1.25 | [1] 1.15 | SHP2 N-SH2 domain L43F 0.958 | SHP2 N-SH2 domain T42A 1 | SHP2 N-SH2 domain T52S 1.11 | [2] 1.15

B37: LZTR1_Y119 (peptide)
chain: PPAPRYHHSAV
inactive: SHP2 C-SH2 domain E139D 1.84 | [1] 2.05 | SHP2 N-SH2 domain L43F 2 | SHP2 N-SH2 domain T42A 1.52 | SHP2 N-SH2 domain T52S 1.71 | [2] 2.06
